Source: paper PMC12136788
Where a chain is given by its changes, count along the chain named. The list shows a part of the results.

T1: UNK ZnF1-3 (human, UniProt Q9C0B0 31-174)
T1 sequence: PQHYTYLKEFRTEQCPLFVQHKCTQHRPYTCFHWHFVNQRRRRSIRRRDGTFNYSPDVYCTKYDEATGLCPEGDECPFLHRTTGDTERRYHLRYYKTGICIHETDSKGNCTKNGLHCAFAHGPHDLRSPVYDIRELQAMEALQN

B1: chr8:96496865:96496866:-_ENSMUSG00000031751_ENSMUST00000053766|mus_mus|FALSE|FALSE (ssRNA)
RNA: GGGAGUUCUACAGUCCGACGAUCCAAGUCCAGUCAACACCAGAAGAGGCCAUGCCUAGAGUUAAAAUGUGCAAUGUUUCUAAGGGGAAGAGAAAUGUCACAAAGAAAGUAUUACAAAGGAUUAAAUUUGUCAGCUGUCCACACCAACAGAGGAUUGAGCAUCA
B2: chr8:95500983:95500984:-_ENSG00000164944_ENST00000437199|hu_hu|hu_hu_hu_mus_True|68_68 (ssRNA)
RNA: GGGAGUUCUACAGUCCGACGAUCAGAACACAUCUAUCGAGUAAAGGACCGUACAUGACGGCCUCUAACCACUGCCUCACUAACAAACUUUCCUCUCGAGCCUCCACUGCCGCUAUUUGUACUAGCCCAGGACGGUCCCAGGCCCAACAGAGGAUUGAGCAUCA
B3: 137713489_137715367_815_CDS_ENSG00000120733_ENST00000314358|human|control|control (ssRNA)
RNA: GGGAGUUCUACAGUCCGACGAUCGAUGGAGUCCUGAUGGCUCACAACACCAUAGAGCCACCCUUCUUCCCCCUCUGGCUGAUAUAUUUUGACCCUGUGACCUUGAACACUGUAGGGACCUCGGCUGAAUAUCUCUUGUAGCUUCAACAGAGGAUUGAGCAUCA
B4: chr1:180251892:180251893:+_ENSMUSG00000026500_ENSMUST00000027781|mus_mus|motif|central (ssRNA)
RNA: GGGAGUUCUACAGUCCGACGAUCAUGAGCCAUAGAGUAUAGAUUCUCGAGCACAUGGAGUGUUCUCAACAUCUAAAAUACCGGGGAGCUUGAAGGGCUUUUUCUCCGUCUCGUGGGGCUCCGGGGCGGCCGCCAUGGGCACCACAACAGAGGAUUGAGCAUCA
B5: chr11:77336104:77336105:-_ENSG00000074201_ENST00000525064|hu_mus|hu_hu_hu_mus_False|18_58 (ssRNA)
RNA: GGGAGUUCUACAGUCCGACGAUCCUCACACAUUGCUGUGAACAUCGCCUCCAAUGCUGACUUAUCACUGGGCACAAAUCUAAAUUCAGAAAUGGGUUCAACAUCAUCAUUGUCUUCUUCCUCUUCUUCAGAGAGAGGUUCUUUCAACAGAGGAUUGAGCAUCA
B6: chr4:95690885:95690886:+_ENSMUSG00000028572_ENSMUST00000156910|mus_mus|mus_mus_mus_hu_False|28_78 (ssRNA)
RNA: GGGAGUUCUACAGUCCGACGAUCUUUAGAAAAUGUUAAAUACCAUGCUAAAAUAUUGUAAUUUUAAUAUUUUAUUUUACCAGAAGUCACAGGCAAGCAGACACUACAAACAUACAAGAAAAUGAAACUCAACAAUAUAACUGUCAACAGAGGAUUGAGCAUCA
B7: 26418582_26418702_1127_3pUTR_ENSMUSG00000024188_ENSMUST00000114976|mouse|control|control (ssRNA)
RNA: GGGAGUUCUACAGUCCGACGAUCGCCAGCCUCCUUCUCCUCCGACCUCCGCGAUGCAGUCUUGCCAUUGGAAUUCUCCAGCCUCCAGUCAGUGGGCCCUCGUUCAUUCCGCCCGUACUCCCAGGAUUCCUCUCUCAAUGAGCGCAACAGAGGAUUGAGCAUCA
B8: chr19:16212804:16212805:+_ENSG00000167460_ENST00000300933|hu_mus|hu_hu_hu_mus_False|18_58 (ssRNA)
RNA: GGGAGUUCUACAGUCCGACGAUCAACAAUUCUGGAGUGAAGGAAAGAUGUAACAUGGAACAGCAUUAAAGCUCAGUAUUACUAUAUAUGGGCAACAAUGAUCACCCCAGCAUUCUCCUACGUUGACCUUAAAGACAAUCUGUUCAACAGAGGAUUGAGCAUCA
B9: chr5:73476710:73476711:-_ENSMUSG00000070733_ENSMUST00000101127|mus_hu|FALSE|FALSE (ssRNA)
RNA: GGGAGUUCUACAGUCCGACGAUCCAGAAUAGAGAUGUGGUAGAGGAGACAGCUGGCUGAGUACUCCAUCUGUUCUCUGAACCUCCAAUUUGUGAGCAUAGCGAAACAUCUUCGGUUCCAGAAUCUGUAAAAGUUGCAUAGCAACAACAGAGGAUUGAGCAUCA
B10: chr18:42481571:42481572:+_ENSMUSG00000024491_ENSMUST00000091920|mus_mus|motif|central (ssRNA)
RNA: GGGAGUUCUACAGUCCGACGAUCAAGGUAUUGGAUGAGUGCUGCUUCUGGAUCACCCUUAAAAGCAACCUGGAUAUUAACGGUGGUUCCAAAUUUGCUGAAGUGUUCGUUGAGCUUGGUAAUGUUGUUCAAUUCCUGGGGGAUCAACAGAGGAUUGAGCAUCA
B11: chr7:97836282:97836283:+_ENSG00000164715_ENST00000297293|hu_hu|FALSE|FALSE (ssRNA)
RNA: GGGAGUUCUACAGUCCGACGAUCAGGGAGGGAGGUGUGAGGUCGCCCAUGACCACAGGGGCUCGUGACGAUGUGACGAAGCUACACUGGGAGCACUCGGGCCCUUUCAAAGCCAGAAGAGAACCUGGGGCUUAAUGCAGAACGCAACAGAGGAUUGAGCAUCA
B12: chr2:165877891:165877892:+_ENSMUSG00000027678_ENSMUST00000088095|mus_hu|FALSE|FALSE (ssRNA)
RNA: GGGAGUUCUACAGUCCGACGAUCAAAUCUCUGAAUACACCUUCGGAUUAUAUCUUCAAAGCCAGGCCUCAUGGAGGAUCUCAGUGAAUUUGUAUCUAUAUUGACAACCUUUCCUGAAAGAUCAUGUCUGGUAAUAAAGCUCUCCAACAGAGGAUUGAGCAUCA
B13: chr7:75932113:75932114:+_ENSG00000106211_ENST00000248553|hu_hu|hu_hu_hu_mus_False|98_108 (ssRNA)
RNA: GGGAGUUCUACAGUCCGACGAUCCUGCGACCACUCCUCCGGCAGCCGGGGCACCCCGAAAGCUUGAUCGAAGAGGCGGCUGUGUGCAGGGUACCAGUCCCGGAAUGGUUCCCAGCUCGGGCUCCGCAGCAGCGAGAAGGGCACCAACAGAGGAUUGAGCAUCA
B14: chr2:47389785:47389786:-_ENSG00000143933_ENST00000272298|hu_hu|FALSE|FALSE (ssRNA)
RNA: GGGAGUUCUACAGUCCGACGAUCCAGUUCCCAAUUCCUUUGUUGUUAUAGUUCCAUCACCAUCUUUGUCAAAUAGUGAAAAAGCUUCUUUGAAUUCUGCAAUCUGCUCUUCAGUCAGUUGGUCAGCCAUGCUGCAAGCGCUACCAACAGAGGAUUGAGCAUCA
B15: chr11:21042598:21042599:+_ENSMUSG00000020134_ENSMUST00000093290|mus_mus|motif|central (ssRNA)
RNA: GGGAGUUCUACAGUCCGACGAUCGCUGUCAUGAGUAUAUUCAACCACCACCGUCUGGGCUCGAGAUAAAGUAUAUGAUAUGCGGUGCUGGUCCUUGUUGCUUAUUGCCUUGGCAGCCUGAGGAGUACAUGCAAUGUGCACGGUCAACAGAGGAUUGAGCAUCA
B16: chr5:40767622:40767623:-_ENSG00000132356_ENST00000397128|hu_mus|hu_hu_hu_mus_False|38_38 (ssRNA)
RNA: GGGAGUUCUACAGUCCGACGAUCAUCUUUUAUUGCGGCCCUCUUCAUGGGAUCCACCUGCAGCAUAUGUUUCAAAAGGCUGAUUACUGAAGGGUUUAAAUAUUGAGGGGUAUAAAAGAUCCCAUCACAUAUCUUCUUAAAAAGCAACAGAGGAUUGAGCAUCA
B17: 38418874_38420842_594_3pUTR_ENSG00000171475_ENST00000323571|human|control|control (ssRNA)
RNA: GGGAGUUCUACAGUCCGACGAUCUGUAUCAUCCUGAGGACGCCCGCUGGCGGCAGAUACUGGAGGCCUUGGGGCAGCAGCUCGAGAACUGGGGAUUUGCAGGGCUGGCUUACCAGCUAGGUUCUCUGAACCAUCCUUGGCUCCCAACAGAGGAUUGAGCAUCA
B18: chr13:76104392:76104393:-_ENSG00000188243_ENST00000355801|hu_mus|FALSE|FALSE (ssRNA)
RNA: GGGAGUUCUACAGUCCGACGAUCAUACUUGAGAGAUCUGCAGCUGUCAGAGCUCACAGCCAUGCCCAGUUUCCACUGAAAAUCUAUAAGCUGGCCCGUGACCUCCGACUUGGCAUCCAGCACGGGCUCCCUGAACCCAGACUCCAACAGAGGAUUGAGCAUCA
B19: chr4:95690885:95690886:+_ENSMUSG00000028572_ENSMUST00000156910|mus_mus|mus_mus_mus_hu_False|18_78 (ssRNA)
RNA: B6 RNA with A109G, C110A, C114U, A116U, G117A, A120U, U122C, G123A, A126C
B20: chr7:138035701:138035702:+_ENSMUSG00000040268_ENSMUST00000120441|mus_mus|FALSE|FALSE (ssRNA)
RNA: GGGAGUUCUACAGUCCGACGAUCUCCUGCAUUCAUAACAAAACAAAACUCUGCCUUUGGCCUUAACUUAGUUGCAUCGCUAACCUUUGAAAUGUAGGUAAGUUUAAUGGCUCCAACCCGUGACGAUCCUGAAGGCAGGUUCUGCAACAGAGGAUUGAGCAUCA
B21: chr16:20552630:20552631:+_ENSMUSG00000003234_ENSMUST00000003319|mus_mus|FALSE|FALSE (ssRNA)
RNA: GGGAGUUCUACAGUCCGACGAUCCAGUUUACUCUGCACUUGAGAGGCUCUGUUUGCAUUGUAUCGAAAACGGUCGAUGAAAACCUGGAUGUGUUGGCGAUACUGCUGCUGGGCCUCAUACUCGCGCUGCUGGUUGAGAAGGCGCAACAGAGGAUUGAGCAUCA
B22: chr12:39687257:39687258:-_ENSG00000139116_ENST00000551264|hu_hu|motif|central (ssRNA)
RNA: GGGAGUUCUACAGUCCGACGAUCAAAAUCCAGUCAACAACUUUUAAAAAUUCAUACAGGCACAACACAAGAUAGUCUCUCGGUACAAUCUACCUAUUUACAUAGCUUUUCCCACCACAGAUGAUAAUAGCUCUCAUCAUAGCUCAACAGAGGAUUGAGCAUCA

Molecular target: T1, UNK ZnF1-3
Test: nsRBNS (natural sequence RNA bind-n-seq); RBNS binding buffer (assumed for nsRBNS): 25 mM Tris pH 7.5, 150 mM KCl, 3 mM MgCl2, 0.01% Triton X-100, 500 ug/ml BSA, 20 U/ml SUPERase-In, 4 C; UNK is unkempt and MSI1 is Musashi-1; names of the RNAs are library labels; protein concentration not given here; high values mean tight binding

Row | Binder | binding signal
1 | B1 | 2.32 enrichment R
2 | B2 | 1.12 enrichment R
3 | B3 | 0.98 enrichment R
4 | B4 | 1.05 enrichment R
5 | B5 | 0.85 enrichment R
6 | B6 | 2.26 enrichment R
7 | B7 | 0.952 enrichment R
8 | B8 | 1.18 enrichment R
9 | B9 | 0.664 enrichment R
10 | B10 | 0.961 enrichment R
11 | B11 | 1.28 enrichment R
12 | B12 | 1.6 enrichment R
13 | B13 | 1.07 enrichment R
14 | B14 | 0.9 enrichment R
15 | B15 | 0.582 enrichment R
16 | B16 | 1.38 enrichment R
17 | B17 | 0.835 enrichment R
18 | B18 | 0.293 enrichment R
19 | B19 | 2.16 enrichment R
20 | B20 | 0.632 enrichment R
21 | B21 | 0.712 enrichment R
22 | B22 | 1.94 enrichment R
